Data reported in PubChem BioAssay AID1745853 (National Center for Advancing Translational Sciences (NCATS), 2022).
“And” between values parts separate entries of the source, which are not always exact repeats. Equal values may be shown once. The list shows a part of the results. Further columns of the screen follow, without active or inactive calls.

Assays:
Assay in all cases: Primary Screen for Target Class Profiling of Small Molecule Inhibitors of Methyltransferases
[1] = target: Glycine N-methyltransferase (Homo sapiens) (UniProt Q14749); conditions: purified enzyme, MTase-Glo SAH luminescence; measured here: GNMT inhibition; at 40 µM; stronger effect = lower value
In short: (§1)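 Each enzyme was assayed with SAM and its substrate. SAH formation detected by MTase-Glo luminescence; single-point 40 uM screen[…].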

[2] = target: Guanidinoacetate N-methyltransferase (Homo sapiens) (UniProt Q14353); conditions: purified enzyme, MTase-Glo SAH luminescence; measured here: GAMT inhibition; at 40 µM; stronger effect = lower value
In short: as §1

[3] = target: Histamine N-methyltransferase (Homo sapiens) (UniProt P50135); conditions: purified enzyme, MTase-Glo SAH luminescence; measured here: HNMT inhibition; at 40 µM; stronger effect = lower value
In short: as §1

[4] = target: Nicotinamide N-methyltransferase (Homo sapiens) (UniProt P40261); conditions: purified enzyme, MTase-Glo SAH luminescence; measured here: NNMT inhibition; at 40 µM; stronger effect = lower value
In short: as §1

[5] = target: Phenylethanolamine N-methyltransferase (Homo sapiens) (UniProt P11086); conditions: purified enzyme, MTase-Glo SAH luminescence; measured here: PNMT inhibition; at 40 µM; stronger effect = lower value
In short: as §1
On the % scale 0 is the no-effect control and ±100 the full control effect.

Compound	activity change, negative = inhibition [1]	activity change, negative = inhibition [2]	activity change, negative = inhibition [3]	activity change, negative = inhibition [4]	activity change, negative = inhibition [5]
O=C(Nc1ccccc1)Nc1ccc2n(c1=O)C[C@H]1C[C@@H]2CN(C(=O)c2ccccc2)C1	-9.21%	-4.95%	-4.37%	-6.12%	-4.22%
COC[C@H]1C[C@@H](NC2CCOCC2)[C@H](O)[C@@H]1O	-2.65%	-5.63%	-1.04%	-1.88%	2.21%
CC1CCCCCC(=O)c2c(O)cc(O)cc2CC(=O)O1 (stereo unspecified)	2.27%	-1.27%	4.8%	-12.5%	1.26%
CC1(C)C(=O)N(c2ccc(C#N)c(C(F)(F)F)c2)C(=S)N1c1ccc(C(N)=O)c(F)c1	5.91%	2.29%	5.66%	-24.5%	0.343%
Cc1ccccc1C1c2cccn2-c2ccccc2CN1C(=O)Nc1cccc(Cl)c1C (stereo unspecified)	14.2%	0%	8.12%	2.69%	10.3%
Cc1ncc2c(n1)C[C@@H]1CC[C@H]2N1S(=O)(=O)Cc1ccccc1	-0.79%	3.08%	0.86%	-3.91%	-0.724%
COc1ccc(OC)c(NC(=O)N2Cc3ccccc3-n3cccc3C2c2ccccc2Cl)c1 (stereo unspecified)	8.84%	0%	1.36%	5.28%	5.41%
Cc1cc(C)cc(NC(=O)N2Cc3ccccc3-n3cccc3C2c2ccccc2C)c1 (stereo unspecified)	1.44%	1.32%	-4.6%	-9.83%	-5.45%
C=CCN1CC[C@]2(C)c3cc(O)ccc3CC1[C@@H]2C		1.22%		-8.37%	2.41%
O=C(N[C@H]1CN2CCC1CC2)c1ccc(Cl)cc1	7.15% and -3.35%	8.01% and 4.59%	5.26% and 0.151%	-4.79% and -4.21%	5.64% and 5.32%
O=[N+]([O-])c1ccc2nc(N3CCNCC3)ccc2c1	-9.88%	10.8%	-10.9%	-2.35%	-4.57%
Cc1c(Cl)cccc1NC(=O)N1Cc2ccccc2-n2cccc2C1c1cccs1 (stereo unspecified)	5.63%	4.88%	-1.15%	-10.3%	-0.997%
C[C@@H]1C(=O)O[C@H]2[C@H](O)[C@@]34[C@@H]5OC(=O)[C@@]3(O[C@@H]3OC(=O)[C@@H](O)[C@@]34[C@H](C(C)(C)C)[C@H]5O)[C@@]12O	3.25%	2.33%	10.9%	-11.9%	7.13%
Cc1ccccc1C1=CCN(C)CC1	-6.35%	-10.3%	-20.6%	-14.2%	-48.9%
C[C@@H]1C[C@@H](O)[C@]2(O)O[C@@H]3C[C@@]4(C=O)C(CC[C@@H]5C4CC[C@]4(C)[C@@](O)(C6=CC(=O)OC6)CC[C@]54O)C[C@H]3OC2O1 (stereo partly specified)	-0.642%	3.37%	8.29%	-6.51%	0.132%
N#Cc1ccc(N2CCN(C(=O)COc3ccc4[nH]cc(CCN)c4c3)CC2)cc1	-45.3%	-7.32%	-97.9%	-26.1%	-4.25%
c1ccc2c(N3CCNCC3)cccc2c1	-45.2%	-8.84%	-21%	-17.9%	-50.8%
O=C(OC[C@H]1O[C@@H](Oc2ccc(O)cc2CO)[C@H](O)[C@@H](O)[C@@H]1O)c1ccccc1	-0.613%	0.479%	6.07%	-10.9%	-3.27%
CC[C@H]1CN2CC[C@H]1C[C@@H]2[C@@H](O)c1ccnc2ccc(OC)cc12	5%	9%	-21.9%	-6.03%	-11.3%
CO[C@H]1[C@H](O)[C@H](O[C@H]2CC[C@]3(C)C4CC[C@]5(C)[C@H](C6=CC(=O)OC6)CC[C@]5(O)C4CC[C@@H]3C2)O[C@@H](C)[C@@H]1O (stereo partly specified)	-0.787%	1.54%	8.55%	-8.72%	2.35%
COc1cc(NC(=O)N2Cc3ccccc3-n3cccc3C2c2ccc(F)cc2)cc(OC)c1 (stereo unspecified)	-3.05%	7.24%	-1.24%	-1.95%	2.7%
CN(C)CCNC(=O)C1CNCC12CCOCC2 (stereo unspecified)	-3.36%	-0.588%	-0.357%	-10.1%	5.79%
C[C@H]1CCCC(=O)CCC/C=C/c2cc(O)cc(O)c2C(=O)O1		-42.2%		-48.2%	-59.5%
COc1ccc(OC)c(NC(=O)N2Cc3ccccc3-n3cccc3C2c2ccc(F)cc2)c1 (stereo unspecified)	2.19%	1.05%	6.26%	6.15%	10.2%
COC1CC(O[C@H]2CC[C@]3(C=O)C4CC[C@]5(C)[C@@H](C6=CC(=O)OC6)CC[C@]5(O)[C@@H]4CC[C@@H]3C2)OC(C)C1O[C@@H]1O[C@H](CO)[C@@H](O[C@@H]2O[C@H](CO)[C@@H](O)[C@H](O)[C@H]2O)[C@H](O)[C@H]1O (stereo partly specified)	4.34%	2.02%	7.64%	-8.83%	2.11%
CN1CCOC[C@H]2CCNC[C@H]21	-2.82%	0.703%	1.63%	-1.8%	-0.589%
CCC(CC)c1cc([C@H]2CN3CC[C@H]2C[C@@H]3CNC(=O)C2CCC2)nc(-c2ccncc2)n1	-5.55%	-12.7%	-7.61%	-15.7%	-12.2%
C[C@]12CC[C@@H](O[C@@H]3O[C@H](CO)[C@@H](O)[C@H](O)[C@H]3O)C[C@@]1(O)CCC1C2CC[C@]2(C)[C@@H](C3=CC(=O)OC3)CC[C@]12O (stereo partly specified)	-1.57%	-1.91%	4.42%	-14%	4.21%
C=CCN1C[C@@H](C)N([C@H](c2ccc(C(=O)N(CC)CC)cc2)c2cccc(OC)c2)C[C@@H]1C	2.05%	15.7%	12.2%	-6.85%	4.39%
CCc1[nH]c2ccc(OC)cc2c1CCN(C)C	0.431%	-4.74%	-46.8%	-14.8%	-2.7%
